Reference: patent US9872922B2, “Anti-EFNA4 antibody-drug conjugates” (PFIZER, INC., priority 2013, dated 2018)

Columns and labels:
Z138 = assay: Flow cytometry antibody binding (MCF), Z138; settings: 10 μg/ml antibody; Z138, MCL
Protocol: (§1) Binding of humanized anti-EFNA4 antibodies huE22 and huE47 was assessed on EFNA4 expressing cells by flow cytometry. Adherent cells were dissociated using TrpLE Express (GIBCO cat #12604-021), neutralized with cell culture media and counted. Cells were plated into a U-bottom 96-well plate (BD Falcon cat #353077) with 5×10e5 cells/100 μL media/well. The plate was centrifuged at 300×g, 5 minutes, 4° C. to pellet cells and the supernatant was discarded. All reagents were kept on ice for the following steps. Each pellet was resuspended in 100 μL primary humanized anti-EFNA4 antibody (huE22 or huE47) or negative control antibody at 10 μg/mL in 3% BSA in PBS. The plate was incubated on ice for 30 minutes. The plate was centrifuged and the cell pellets were washed in 200 μL 3% BSA in PBS. Each cell pellet was resuspended in 100 μL of R-phycoerythrin (PE)-conjugated goat anti-human IgG Fc fragment (Jackson ImmunoResearch cat #109-115-098) that had been diluted 1:50 in 3% BSA in PBS. The plate was incubated on ice for 30 minutes. […] The samples were analyzed by flow cytometry using 5 μL 7AAD (B-D Pharmingen cat #51-68981E) per sample as a viability stain.
(§2) Endogenous EFNA4 expressing cancer cell lines were analyzed: Breast cell lines BT-483, HCC202 and MX-1, Chronic Lymphocytic Leukemia (CLL) cell line MEC1 and mantle cell lymphoma (MCL) cell line Z138.

HCC202 = assay: Flow cytometry antibody binding (MCF), HCC202; settings: 10 μg/ml antibody; HCC202, Breast
Protocol: as §1, §2

B1: huE22 (antibody)
heavy: QVQLVQSGAEVKKPGASVKVSCKASGYTFTGYYIHWVRQAPGQGLEWMGWIYPGNFNTKYNERFKGRVTMTTDTSTSTAYMELRSLRSDDTAVYYCAREDGSPYYAMDYWGQGTSVTVSS[human IgG1 constant region omitted here]
VL: DIVMTQTPLSLSVTPGQPASISCRSSQSLVHSNGNTFLYWYLQKPGQSPQLLIYRVSNRFSGVPDRFSGSGSGTDFTLKISRVEAEDVGVYYCFQATHVPWTFGGGTKVEIK
- Mean Channel Fluorescent (MCF) (Z138): 44
- Mean Channel Fluorescent (MCF) (HCC202): 13.2
